Data published in PubChem BioAssay AID445 (National Center for Advancing Translational Sciences (NCATS), 2006).
Among all 110,000 compounds or so, about 40 (0.04%) were called active. This list was built around the results that the source calls inconclusive (neither active nor inactive); the mix of calls is not that of the screen. Calls follow the shape of the dose curve; as a rule, active = well fitted curve in the direction sought with a large enough effect in the signal ratio (not every such curve was filed as active); inconclusive = small, poorly fitted or top-dose-only effect, or a change in a side signal; inactive = flat fitted curve, though single readings scatter; the % refers to the signal ratio. A potency beside an inconclusive call is a rough fit, not a confirmed value.

experiment: IkB Signaling; conditions: ABC-DLBCL IkBa-CBG/CBR dual luciferase ratio (green luciferase fused to IkBa over red control in OCI-Ly3 lymphoma cells), 4 h; IkBa stabilization activation: at 57.1 µM (top of the series), scaled: untreated 0%, proteasome inhibitor 100% unless noted;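 as to IkBa stabilization activation: 0% = basal untreated cells and 100% = reference inhibitor full response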
Outline: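 In this assay, an IκBα–CBG68 fusion accumulates when IKK-driven degradation is blocked; native CBR normalizes for cell number. OCI-Ly3 cells were treated 4 h with compound and doxycycline, then green and red light read after Chroma-Glo addition.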
Potency is read from the fitted curve at half-maximal effect.

Structure (SMILES)	IkBa stabilization activation	Potency
CN(C)S(=O)(=O)c1ccc(NS(=O)(=O)/C=C/c2ccccc2)cc1	inactive: -0.0152%	–
Cc1nc(CC(=O)Nc2nc(-c3ccccc3)cs2)cs1	inconclusive: 1.9% [signal inhibitor]	–
CCCOC(=O)c1ccc(Oc2c(-c3ccc(OCC)cc3O)n[nH]c2C)cc1	inconclusive: -3.86% [signal inhibitor]	–
CN(Cc1ccccc1)S(=O)(=O)c1nnc(NC(=O)c2ccccc2Cl)s1	inconclusive: 1.77% [signal inhibitor]	–
O=C(Nc1ccc(Cl)cc1C(=O)O)c1ccc2c(c1)C(=O)N(Cc1ccco1)C2=O	–	inconclusive: 3.16 µM [signal inhibitor, full curve]
Cc1ccc(-n2nnnc2SCC(=O)Nc2cccc(NC(=O)c3ccco3)c2)cc1C	inconclusive: 13.6% [signal inhibitor]	–
COc1ccc(-c2nc(Cn3c(=O)cc(-c4ccccc4)c4c(C)nn(C)c43)c(C)o2)cc1OC	inactive: -1.15%	–
CC1CCN(S(=O)(=O)c2ccc3c(ccc(=O)n3CC(=O)NCc3ccc(Cl)cc3)c2)CC1	inconclusive: 2.15% [signal inhibitor]	–
CCOc1ccc(Nc2nc3c(S(=O)(=O)c4ccc(CC)cc4)nnn3c3ccc(Cl)cc23)cc1	inactive: -0.391%	–
CC1=C(/C=C/C(C)=C/C=C/C(C)=C/C(=O)Nc2ccc(O)cc2)C(C)(C)CCC1	–	inconclusive: 39.8 µM [rising, partial curve]
CC(=O)N1CCc2cc(Br)cc(S(=O)(=O)NCCc3ccc(Cl)cc3)c21	inconclusive: 6.99% [signal inhibitor]	–
CC(=O)c1cccc(NC(=O)CCc2nc3cccnc3n2Cc2cccs2)c1	inconclusive: -0.316% [signal inhibitor]	–
O=C(c1cccn1-c1nnc(N2CCCCC2)s1)N1CCN(c2ccc(Cl)cc2)CC1	inconclusive: 5.04% [signal inhibitor]	–
CCOC(=O)CSc1nc(-c2ccc(F)cc2)cc(C(F)(F)F)c1C#N	inactive: 1.01%	–
CC1(C)CC(=O)C(C=NCC2CCNCC2)=C(O)C1	inactive: 1.55%	–
N#CCCn1cc(C(CC(=O)c2ccccc2)C(=O)O)c2ccccc21 (stereo unspecified)	inactive: 1.69%	–
Cc1occc1-c1nnc(SCC(=O)Nc2ccccc2)n1C(C)c1ccccc1 (stereo unspecified)	inconclusive: 1.26% [signal inhibitor]	–
CCc1c(C)nc2ncnn2c1N1CCCC(C(=O)NCc2ccc3c(c2)OCO3)C1 (stereo unspecified)	inconclusive: 0.138% [signal inhibitor]	–
COc1ccc(Cl)cc1N=C1NC(=O)CC(C(=O)Nc2ccccc2C(F)(F)F)S1 (stereo unspecified)	inconclusive: 2.8% [signal inhibitor]	–
COC(=O)c1ccc(OC)c(CSc2nnc(COc3ccc(Cl)cc3)o2)c1	inconclusive: 9.06% [signal inhibitor]	–
COc1ccc(S(=O)(=O)N(CC(=O)Nc2cc(C)cc(C)c2)c2ccc(Cl)cc2)cc1	inconclusive: 2.3% [signal inhibitor]	–
CCn1c(C(=O)N2CCC(C(=O)N3CCN(c4ccc(OC)cc4)CC3)CC2)cc2sccc21	inconclusive: -0.249% [signal inhibitor]	–
CCc1ccccc1N1CC(c2nc3ccccc3n2CCOc2ccc(Cl)c(C)c2)CC1=O (stereo unspecified)	inconclusive: -2.09% [signal inhibitor]	–
Cc1cc(C)cc(NC(=O)C(CC(C)C)NC(=O)C2CCCCC2)c1 (stereo unspecified)	inactive: 0.374%	–

Structure (SMILES)	IkBa stabilization activation	Potency
CN(C)c1ccc(C(=O)Nc2c(C(=O)NC(C)(C)C)oc3ccccc23)cc1	inconclusive: 0.0773% [signal inhibitor]	–
CC(=O)Nc1ccc(Cc2ccc3[nH]c(=O)cc(C)c3c2)cc1	inconclusive: 13.7% [signal activator] [at 11.4 µM, scaled: untreated 0%, proteasome inhibitor 100%]	–
CCCN1CCCc2cc(CN(CCCN3CCOCC3)C(=O)Nc3ccc(Cl)c(Cl)c3)ccc21	inconclusive: -2.25% [signal inhibitor]	–
COc1ccc2sc(N(Cc3cccnc3)C(=O)CCc3ccccc3)nc2c1	inconclusive: 2.62% [signal activator]	–
CCOC(=O)c1c(S(=O)(=O)N2CCC(C(=O)NCc3ccccc3Cl)CC2)c(C)n(C)c1C	inconclusive: 0.411% [signal inhibitor]	–
CN1CCc2c(sc3c2C(=O)NC(c2ccco2)N3)C1 (stereo unspecified)	inactive: 1.09%	–
COc1cccc(CNC(=O)c2ccc3c(c2)sc2nc(-c4cccc(OC)c4)cn23)c1	inconclusive: 3.64% [signal inhibitor]	–
COCCn1ccc2c(OCC(=O)Nc3cccc(C(F)(F)F)c3)cccc2c1=O	inconclusive: 2.32% [signal inhibitor]	–
C=CCn1c(N2CCCCCC2)nc2c1c(=O)[nH]c(=O)n2C	inactive: -0.0872%	–
CCOC(=O)c1ccc(NC(=O)Cn2nc(C)c3nn(-c4ccc(Cl)cc4)c(C)c3c2=O)cc1	inactive: -0.154%	–
COc1cc2nc(N3CC=[N+](C(=O)c4ccco4)CC3)nc(N)c2cc1OC	inactive: -9.52%	–
CCc1nc2nc(C)cc(Nc3cc(C)ccc3C)n2n1	inactive: -0.743%	–
Cc1cccc(N2CCN(C(=O)c3cnn(-c4ccccc4)c3C3CCN(C(=O)OC(C)(C)C)CC3)CC2)c1C	inconclusive: 0.147% [signal inhibitor]	–
CCOc1ncccc1C(=O)NCC1COc2ccccc2O1 (stereo unspecified)	inactive: -2.65%	–
CCC(=O)N1c2ccccc2CC1C(=O)NCCN1CCN(c2cc(Cl)ccc2C)CC1 (stereo unspecified)	inconclusive: 2.04% [signal inhibitor]	–
Cc1cc(C)cc(OCC(=O)N2CCC(c3nc4ccccc4o3)CC2)c1	inconclusive: 4.38% [signal inhibitor]	–
O=C(Cc1ccc(Cl)cc1)Nc1ccc2oc(-c3ccc(F)cc3)nc2c1	inactive: 10.7%	–
Cc1ccc2c(c1)c1c(n2CC(O)Cn2c(C)nc3ccccc32)C(=O)CCC1 (stereo unspecified)	inactive: -4.06%	–
CCOc1ccc(NC(=O)c2c(NCc3cc(OC)c(OC)cc3OC)sc3c2CCCC3)cc1	inconclusive: -1.68% [signal inhibitor]	–
COc1ccc(NC(=O)Cn2c(-c3ccc(F)cc3)cc(C(C)=O)c2C)c(OC)c1	inactive: -0.846%	–
CC(=O)c1cccc(NC(=O)c2ccc3c(c2)N(Cc2ccc(C)cc2)CCS3)c1	inactive: -0.231%	–
N#C/C(=C\c1ccc(F)cc1)c1nc(-c2ccc(-c3ccccc3)cc2)cs1	–	inconclusive: 2 µM [signal inhibitor]
COc1cccc(CC(=O)Nc2c(C(=O)N3CCN(c4ccccc4F)CC3)oc3ccccc23)c1	inconclusive: 1.45% [signal inhibitor]	–
CCCC1=Nc2cc(C(=O)NC3CCCCC3)ccc2Sc2ccc(C)cc21	inactive: -1.88%	–

Structure (SMILES)	IkBa stabilization activation	Potency
COc1ccc(-c2cc(C(F)(F)F)n3nc(C(=O)NCc4ccco4)cc3n2)cc1	–	inconclusive: 25.1 µM [signal inhibitor, partial curve]
COc1cc(C2CC(=O)c3c([nH]c(C(=O)OC4CCCC4)c3C)C2)cc(OC)c1OC (stereo unspecified)	inconclusive: 1.5% [signal inhibitor]	–
Clc1ccc(-c2cn3cc(Cc4ccccc4)sc3n2)cc1	–	inconclusive: 20 µM [signal inhibitor, partial curve]
CCOc1ccc(CCNC(=O)c2ccc(CSCc3ccccc3C)o2)cc1OCC	inconclusive: 3.55% [signal inhibitor]	–
O=C(CSc1nc(=O)n(Cc2ccncc2)c2c1CCC2)Nc1cccc(F)c1	inconclusive: 8.11% [signal inhibitor]	–
CCN(C(=O)C(NS(=O)(=O)c1ccc(Br)s1)c1ccccc1)c1ccc(C)c(C)c1 (stereo unspecified)	inconclusive: 9.02% [signal inhibitor]	–
CCc1cccc(NC(=O)C(Cc2ccccc2)NS(=O)(=O)c2cccs2)c1 (stereo unspecified)	inconclusive: 6.64% [signal inhibitor]	–
COc1ccc(-n2c(=O)c3c4c(sc3n(Cc3ccccc3C)c2=O)CCCC4)c(OC)c1	inconclusive: 4.53% [signal inhibitor]	–
COc1ccc(Cc2nc(-c3ccc(-n4cccc4)cc3)no2)cc1OC	inactive: 5.22%	–
CCN1c2ccccc2-c2nc3ccccc3n2C1c1ccncc1 (stereo unspecified)	inconclusive: 2.35% [signal inhibitor]	–
Cc1nc2scc(-c3ccccc3)c2c(=O)n1/N=C/c1ccco1	inactive: 1.36%	–
CC(=O)c1ccc(Nc2cc(C)nc3nc(Cc4ccccc4)nn23)cc1	inconclusive: 1.11% [signal inhibitor]	–
Cc1c(Br)c(C(F)(F)F)nn1CC(=O)NCC1CCCO1 (stereo unspecified)	inactive: -1.08%	–
CCOc1ccc(C(=O)NCCc2csc(-c3cccc(C)c3)n2)cc1	inconclusive: -0.682% [signal inhibitor]	–
CC(C)CC(=O)Nc1nnc(S(=O)(=O)N2c3ccccc3CC2C)s1 (stereo unspecified)	inconclusive: 0.935% [signal inhibitor]	–
CCCCCn1c(=NC(C)=O)c(C#N)cc2c(=O)n3cccc(C)c3nc21	inactive: 1.77%	–
CCOC(=O)C1=C(C)NC(=O)NC1/C(C)=C/c1ccccc1 (stereo unspecified)	inactive: 0.234%	–
Cc1ccc(C)c(N2CCN(CCCNC(=O)c3ccc4nc(N5CCC(C)CC5)sc4c3)CC2)c1	inconclusive: -0.0316% [signal inhibitor]	–
O=C(NC1=NCCS1)c1ccc2c(c1)C(=O)N(Cc1ccco1)C2=O	inactive: 4.35%	–
CCOC(=O)C1=C(C)Nc2ncnn2C1c1ccc2c(c1)OCO2 (stereo unspecified)	inactive: 0.238%	–
COc1ccccc1NC(=O)CN1CCN(CC(=O)Nc2ccc3c(c2)OCCO3)CC1	inconclusive: 3.28% [signal inhibitor]	–
CC1CC(C)(C)Nc2ccc(OC(=O)c3ccco3)cc21 (stereo unspecified)	–	inconclusive: 3.98 µM [signal inhibitor, partial curve]
Oc1ccc(Cl)cc1C=Nc1cnc2ccccc2c1	inactive: 13.2% [at 11.4 µM, scaled: untreated 0%, proteasome inhibitor 100%]	–
